Holding throughout (test): glycan array binding signal (z-score within array); higher = stronger binding
Settings in all cases: glycan notation: IUPAC condensed, linker removed

One assay deals with Neu5Ac(a2-6)Gal. The method, boiled down: (§1)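 Glycan array data were curated from 3228 arrays in the Consortium for Functional Glycomics database and kept only where the protein sequence was available. Glycan names were converted to IUPAC-condensed notation, and columns mapping to the same glycan were averaged. The binding signal is a within-array Z-score, averaged across arrays of the same protein sequence at different concentrations or buffers and across linkers. Negative Z-scores can be read as non-binding.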

Assay [1] concerns the target Neu5Ac(a2-6)Gal(b1-3)GlcNAc(b1-3)[Gal(b1-4)GlcNAc(b1-6)]Gal(b1-4)Glc. The method, boiled down: as §1
For a further assay, the target named is Neu5Ac(a2-6)Gal(b1-4)Glc. An outline of the steps: as §1
For assay [2], the target named is Neu5Ac(a2-6)Gal(b1-4)GlcNAc. The method, boiled down: as §1
Assay [3] concerns the target Neu5Ac(a2-6)Gal(b1-4)GlcNAc(b1-2)Man. The method, boiled down: as §1
Assay [4] addresses Neu5Ac(a2-6)Gal(b1-4)GlcNAc(b1-2)Man(a1-3)Man(b1-4)GlcNAc(b1-4)GlcNAc. An outline of the steps:
as §1

Assay [5] has as its target Neu5Ac(a2-6)Gal(b1-4)GlcNAc(b1-2)Man(a1-3)[Gal(b1-4)GlcNAc(b1-2)Man(a1-6)]Man(b1-4)GlcNAc(b1-4)GlcNAc. The method, boiled down:
as §1

Assay [6] addresses Neu5Ac(a2-6)Gal(b1-4)GlcNAc(b1-2)Man(a1-3)[GlcNAc(b1-2)Man(a1-6)]Man(b1-4)GlcNAc(b1-4)GlcNAc. The method, boiled down: as §1
In assay [7] the target is Neu5Ac(a2-6)Gal(b1-4)GlcNAc(b1-2)Man(a1-3)[GlcNAc(b1-4)][Neu5Ac(a2-6)Gal(b1-4)GlcNAc(b1-2)Man(a1-6)]Man(b1-4)GlcNAc(b1-4)GlcNAc. An outline of the steps:
as §1

For assay [8], the target named is Neu5Ac(a2-6)Gal(b1-4)GlcNAc(b1-2)Man(a1-3)[Man(a1-6)]Man(b1-4)GlcNAc(b1-4)GlcNAc. The method, boiled down:
as §1

In assay [9] the target is Neu5Ac(a2-6)Gal(b1-4)GlcNAc(b1-2)Man(a1-3)[Neu5Ac(a2-3)Gal(b1-4)GlcNAc(b1-2)Man(a1-6)]Man(b1-4)GlcNAc(b1-4)GlcNAc. An outline of the steps:
as §1

For assay [10], the target named is Neu5Ac(a2-6)Gal(b1-4)GlcNAc(b1-2)Man(a1-3)[Neu5Ac(a2-6)Gal(b1-4)GlcNAc(b1-2)Man(a1-6)]Man(b1-4)GlcNAc(b1-4)GlcNAc. The method, boiled down: as §1
Assay [11] concerns the target Neu5Ac(a2-6)Gal(b1-4)GlcNAc(b1-2)Man(a1-3)[Neu5Ac(a2-6)Gal(b1-4)GlcNAc(b1-2)Man(a1-6)]Man(b1-4)GlcNAc(b1-4)[Fuc(a1-6)]GlcNAc. The method, boiled down:
as §1

The target of assay [12] is Neu5Ac(a2-6)Gal(b1-4)GlcNAc(b1-2)Man(a1-6)Man(b1-4)GlcNAc(b1-4)GlcNAc. An outline of the steps:
as §1

Assay [13] addresses Neu5Ac(a2-6)Gal(b1-4)GlcNAc(b1-2)Man(a1-6)[Gal(b1-4)GlcNAc(b1-2)Man(a1-3)]Man(b1-4)GlcNAc(b1-4)GlcNAc. The method, boiled down:
as §1

For assay [14], the target named is Neu5Ac(a2-6)Gal(b1-4)GlcNAc(b1-2)Man(a1-6)[GlcNAc(b1-2)Man(a1-3)]Man(b1-4)GlcNAc(b1-4)GlcNAc. An outline of the steps: as §1
Assay [15] addresses Neu5Ac(a2-6)Gal(b1-4)GlcNAc(b1-2)Man(a1-6)[Man(a1-3)]Man(b1-4)GlcNAc(b1-4)GlcNAc. An outline of the steps:
as §1

The target in assay [16] is Neu5Ac(a2-6)Gal(b1-4)GlcNAc(b1-2)[Neu5Ac(a2-6)Gal(b1-4)GlcNAc(b1-4)]Man(a1-3)[GlcNAc(b1-4)][Neu5Ac(a2-6)Gal(b1-4)GlcNAc(b1-2)[Neu5Ac(a2-6)Gal(b1-4)GlcNAc(b1-6)]Man(a1-6)]Man(b1-4)GlcNAc(b1-4)GlcNAc. An outline of the steps: as §1
In assay [17] the target is Neu5Ac(a2-6)Gal(b1-4)GlcNAc(b1-2)[Neu5Ac(a2-6)Gal(b1-4)GlcNAc(b1-4)]Man(a1-3)[GlcNAc(b1-4)][Neu5Ac(a2-6)Gal(b1-4)GlcNAc(b1-4)Man(a1-6)]Man(b1-4)GlcNAc(b1-4)GlcNAc. The method, boiled down: as §1
The target of assay [18] is Neu5Ac(a2-6)Gal(b1-4)GlcNAc(b1-2)[Neu5Ac(a2-6)Gal(b1-4)GlcNAc(b1-6)]Man(a1-6)[Neu5Ac(a2-6)Gal(b1-4)GlcNAc(b1-2)Man(a1-3)][GlcNAc(b1-4)]Man(b1-4)GlcNAc(b1-4)GlcNAc. The method, boiled down:
as §1

Assay [19] concerns the target Neu5Ac(a2-6)Gal(b1-4)GlcNAc(b1-3)Gal(b1-3)GlcNAc. The method, boiled down: as §1
Assay [20] deals with Neu5Ac(a2-6)Gal(b1-4)GlcNAc(b1-3)Gal(b1-4)GlcNAc. The method, boiled down:
as §1

Assay [21] concerns the target Neu5Ac(a2-6)Gal(b1-4)GlcNAc(b1-3)Gal(b1-4)GlcNAc(b1-2)Man(a1-3)[Neu5Ac(a2-6)Gal(b1-4)GlcNAc(b1-3)Gal(b1-4)GlcNAc(b1-2)Man(a1-6)]GalNAc. An outline of the steps: as §1

Some of the results follow.

B1: LFA (Limax flavus) (protein)
chain: MSVLFLAASFLLLASFELVAAQGCPRQDPGDWIVIQRRLNADVNFYRGWADYKHGFGDLRCNFWLGNEKIHQLTSHGRYKLRVEFTFNNKSYFAEYSTFKILGEADKYKLQVGGYSGNAGDALTFHNGMAFSTNDRDNDADSIDCAKVYHGAWWYKTCHESNLNGKWGSKKYGEGLNWKAKTTFTATATSSLLKIKALK
For B1, the “glycan array binding signal (z-score)” value was -0.188 in the assay with Neu5Ac(a2-6)Gal; -0.28 in assay [1]; -0.166 with Neu5Ac(a2-6)Gal(b1-4)Glc; -0.176 in assay [2]; -0.245 in [3]; -0.223 in assay [4]. Moreover, the “glycan array binding signal (z-score)” value in assay [5] was -0.238; in [6], -0.166; in [7], -0.132; in [8], -0.294; in [9], -0.357; in [10], -0.253. In addition, the “glycan array binding signal (z-score)” value in assay [11] is -0.239; in assay [12] it was -0.199; in assay [13], 0.028; in assay [14], -0.297; in assay [15], -0.185; in assay [16], -0.31. Also, the “glycan array binding signal (z-score)” value in [17] is -0.274; in [18], -0.113; in [19], -0.402; in assay [20], -0.31; in [21] it was -0.113.

For the origin of these results see the supplement of paper PMC8728848.
